Laboratory results: the supplement of paper PMC3334620
The full ranking holds about 33,000 sequences; the median of “E-score (-0.5 to 0.5)” is about -0.04, and the highest 2% start at about 0.36. This is one part of the list.

molecular target: T1, Hmlalpha2 (UniProt P0CY09); test: PBM E-score (8-mer binding enrichment) (E-score (-0.5 to 0.5)); higher = stronger / more preferred TF binding; most listed sequences are background and not binding sites; conditions: protein concentration: 200 nM; construct: GST-full length
T1 sequence: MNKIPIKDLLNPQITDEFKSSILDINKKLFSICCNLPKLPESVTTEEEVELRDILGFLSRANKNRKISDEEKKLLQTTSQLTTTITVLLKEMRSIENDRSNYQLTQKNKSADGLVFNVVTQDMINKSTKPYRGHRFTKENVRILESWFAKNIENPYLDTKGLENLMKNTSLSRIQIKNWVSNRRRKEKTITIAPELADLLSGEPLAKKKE
Outline: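 Full-length yeast transcription factors or their DNA-binding domains, GST-tagged and expressed with PURExpress, were applied at about 100-200 nM to universal all-10-mer Agilent arrays. These arrays had been made double-stranded by primer extension on fresh or once-stripped slides. Detection used fluorescent anti-GST, normalisation used masliner, and E-scores for ungapped eight-base words pooled with reverse complements came from the Universal PBM Analysis Suite.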

In order of rising “PBM E-score” value:
1. CAGTCCCC  -0.394
2. CGAGCCTC  -0.379
3. CCCGGCGG  -0.344
4. CTGCCGCC  -0.331
5. CTTCGCCC  -0.319
6. AAGGCGAA  -0.309
7. ATATGGGG  -0.302
8. ACGAAGGC  -0.296
9. ACCCCCCT  -0.282
10. ATGGGGGC  -0.268
11. CCCCTAAA  -0.264
12. GCGGACCC  -0.26
13. ATGGAAGC  -0.256
14. CTGGAGTC  -0.254
15. GAGCGCTC  -0.252
16. CGTACCTC  -0.243
17. CGTGGGCA  -0.24
18. ACCCTCAT  -0.24
19. CACCATCC  -0.234
20. CCGCAGGA  -0.231
21. CAGATTGG  -0.225
22. CCCATAAG  -0.224
23. ACCGGCAT  -0.215
24. ACTTATGG  -0.214
25. CGTCGTCC  -0.209
26. GATCTCGC  -0.207
27. AGGCAACC  -0.202
28. CGCGGGAC  -0.201
29. CCAACCGG  -0.199
30. ACCGAAGC  -0.195
31. ATTCGGCG  -0.193
32. GTCCGGCA  -0.193
33. AGGCGAGC  -0.192
34. CCGATTTC  -0.182
35. GTCACGGA  -0.176
36. ACCGGGCT  -0.171
37. AGCCTCCT  -0.16
38. ACTTCCCG  -0.159
39. GTCTGAAC  -0.155
40. CCAGGAGA  -0.152
41. CGCCGATA  -0.141
42. CTTTCCAC  -0.137
43. AAGGTTCC  -0.137
44. AGAGAGCG  -0.134
45. ATAGAAAG  -0.134
46. GCCGATAC  -0.132
47. ATCGCACC  -0.13
48. CCAGTGAC  -0.125
49. CCGGTTAG  -0.122
50. AGTTCCTC  -0.12
51. CCCCGCCC  -0.116
52. CTCGCACC  -0.114
53. CGGAAAGC  -0.114
54. AGTTAGTC  -0.109
55. AGTGATGC  -0.108
56. CTACCGAA  -0.108
57. AACGTTCC  -0.108
58. TCGTGAGA  -0.107
59. CAGACATC  -0.107
60. CCAAGTGA  -0.103
61. CACCAAGC  -0.0969
62. TACTGTCA  -0.0966
63. CGCCTAAC  -0.0908
64. AGTCGGAC  -0.0905
65. GGGTATGA  -0.0878
66. AACGGCAG  -0.0869
67. ACCCTAGG  -0.0831
68. GGCGTACC  -0.0747
69. TCAAGTCA  -0.0744
70. GGATCGCA  -0.071
71. GATCATCA  -0.0693
72. ATCTGCCC  -0.0692
73. CCTGATAA  -0.0691
74. AACCAGGC  -0.0673
75. AAATGAGC  -0.0664
76. AACGAGTG  -0.0637
77. CCATTGAG  -0.0626
78. CTCCAAGA  -0.0615
79. CGTGAGAA  -0.0614
80. TAACGGTA  -0.0608
81. CGGCGCAG  -0.0607
82. GCTGGGTA  -0.0595
83. CACTTCCG  -0.0589
84. ACGCCTCT  -0.0552
85. GACCATCA  -0.053
86. AGGATTCA  -0.0484
87. GCTAGTGA  -0.0471
88. AGATTGCT  -0.0457
89. ATTAGGAG  -0.0455
90. CATGCAGG  -0.0438
91. AATGGCTA  -0.0433
92. CAATTCTC  -0.0404
93. GTACGGCA  -0.0357
94. GAACAATC  -0.0347
95. GCCGATCA  -0.0347
96. ATGCACTC  -0.0217
97. GGCGAACA  -0.0205
98. ATACTCCG  -0.0161
99. ATATCCAC  -0.0158
100. CCGATAAC  -0.00703
101. AAACTTAG  -0.0066
102. AATGCGGG  -0.00389
103. AAGAATTC  -0.00323
104. CATGGCAC  -0.00277
105. CAAGTTGA  -0.00258
106. AAAGGCGC  0.00069
107. GGTCTGTA  0.00136
108. AAGTAAGT  0.00158
109. CACCGACG  0.00164
110. CATAGATA  0.00388
111. AGTACCAC  0.0083
112. TACTATGA  0.0132
113. GTTGCCTA  0.0217
114. ATACCGCG  0.0219
115. GATTCGAA  0.0241
116. AACTTCTC  0.0277
117. ACAGATAG  0.0286
118. CATGGAGA  0.029
119. CGAAATGC  0.0303
120. CACAAATG  0.0315
121. TGGACCAA  0.033
122. GTGCGACA  0.033
123. GGAGTTTA  0.0431
124. AGGAATGA  0.0575
125. ATACCAAA  0.059
126. GGCTAGTA  0.0692
127. GGCGGTAA  0.0735
128. CACGCATC  0.0743
129. CGTATCGA  0.077
130. AGTTAGGA  0.0808
131. TTCGCGAA  0.0829
132. CAACGGAA  0.0881
133. ACCCTCGT  0.0908
134. CTTGAGAA  0.0948
135. CCACTCGA  0.0958
136. TCGATACA  0.0987
137. ATCGCGCG  0.0993
138. AAGAAGTA  0.103
139. CCAAAAGA  0.11
140. ATTTATTG  0.11
141. ACAGTGAT  0.113
142. ACGTTTTC  0.115
143. AATTGCGC  0.119
144. ATTTCGTA  0.119
145. AAATCAGC  0.12
146. ACTTATAC  0.124
147. GTTGGACA  0.139
148. TACTTTGA  0.149
149. ACTAGACG  0.151
150. ATATGAAC  0.168
151. GTTAGCAA  0.172
152. AGGCGTAT  0.177
153. CATCACAC  0.192
154. ATAGACAC  0.196
155. ACGCAAGT  0.197
156. AACAGTAT  0.213
157. AAAGTTAA  0.221
158. AAGATACA  0.224
159. ATTGTGTC  0.233
160. TAACAGGA  0.235
161. ATTAAAAA  0.249
162. CAACGCAA  0.251
163. GTTGAATA  0.252
164. AACATTGA  0.253
165. AGATACAC  0.265
166. ACGTATAC  0.266
167. ACATGGGG  0.276
168. CAACAATA  0.287
169. CATGGTAA  0.304
170. ACTAATTA  0.314
171. GTTTTGAA  0.315
172. GCTAACAC  0.366
